# Results as given in publication PMC4336329 (PLoS ONE, 2015).
# Screen size: about 310,000 compounds; about 2,200 (0.71%) showed an effect of 50% or more. Effects have a minus sign here. Some of the results follow.
# Target: human ether-à-go-go-related gene (hERG) potassium channel (human, UniProt Q12809)
# Test: primary screen, population patch clamp on CHO cells stably expressing hERG
# Sequence of human ether-à-go-go-related gene (hERG) potassium channel (Q12809 whole entry, looked up): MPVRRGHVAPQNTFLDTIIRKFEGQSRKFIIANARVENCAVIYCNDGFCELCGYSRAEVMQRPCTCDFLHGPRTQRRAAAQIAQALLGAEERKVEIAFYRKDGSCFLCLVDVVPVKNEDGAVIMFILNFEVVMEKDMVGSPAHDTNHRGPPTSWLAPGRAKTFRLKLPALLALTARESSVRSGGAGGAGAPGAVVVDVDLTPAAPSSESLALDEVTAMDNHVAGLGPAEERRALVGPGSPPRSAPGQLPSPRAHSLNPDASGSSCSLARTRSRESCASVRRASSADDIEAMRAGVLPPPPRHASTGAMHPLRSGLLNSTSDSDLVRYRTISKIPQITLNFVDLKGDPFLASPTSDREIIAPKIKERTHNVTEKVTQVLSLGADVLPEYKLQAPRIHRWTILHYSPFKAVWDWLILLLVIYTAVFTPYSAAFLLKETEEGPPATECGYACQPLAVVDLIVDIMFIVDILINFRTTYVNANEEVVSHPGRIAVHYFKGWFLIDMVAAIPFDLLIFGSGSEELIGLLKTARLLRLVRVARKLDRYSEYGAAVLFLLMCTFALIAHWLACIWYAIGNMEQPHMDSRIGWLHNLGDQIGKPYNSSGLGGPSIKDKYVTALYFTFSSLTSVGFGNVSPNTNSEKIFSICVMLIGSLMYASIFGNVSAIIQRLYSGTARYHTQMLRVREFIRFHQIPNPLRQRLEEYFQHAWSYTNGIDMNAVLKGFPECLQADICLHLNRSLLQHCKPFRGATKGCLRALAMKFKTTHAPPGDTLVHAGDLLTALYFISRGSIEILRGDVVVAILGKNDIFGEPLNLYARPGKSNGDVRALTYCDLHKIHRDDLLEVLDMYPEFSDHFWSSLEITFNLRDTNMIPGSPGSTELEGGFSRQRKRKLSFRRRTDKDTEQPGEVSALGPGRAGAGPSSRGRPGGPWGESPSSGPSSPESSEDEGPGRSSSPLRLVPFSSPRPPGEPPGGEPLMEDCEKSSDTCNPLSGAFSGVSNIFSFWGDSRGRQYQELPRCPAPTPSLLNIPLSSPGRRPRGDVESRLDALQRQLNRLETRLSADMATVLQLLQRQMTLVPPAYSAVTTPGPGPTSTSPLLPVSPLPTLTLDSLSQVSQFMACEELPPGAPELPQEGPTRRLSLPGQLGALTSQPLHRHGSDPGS
row,SMILES,"hERG current change (%, negative = inhibition) at 1uM [%]"
1,COCCN(C(=O)CSc1nnc(-c2cccc(C)c2)n1C)c1c(N)n(Cc2ccccc2)c(=O)[nH]c1=O,11.4
2,CC(=O)c1cccc(NC(=O)N2C3CCC2CC(NC(=O)C2CC2)C3)c1 (stereo not drawn),7.2
3,NS(=O)(=O)c1ccc(CCNS(=O)(=O)c2cccc3cccnc23)cc1,14.2
4,CCOC(=O)N1CCN(C(=O)c2cc3cc(Cl)ccc3[nH]2)CC1,1.55
5,Cc1nc2ccc(C(=O)N3CCN(c4ccccn4)CC3)cc2s1,11.5
6,Fc1cccc(/C=N/Nc2nccnc2Cl)c1,14.1
7,CCC(C)NC(=O)c1ccc(N2CC3CC(C2)c2cccc(=O)n2C3)c(NC(=O)c2ccc(Br)o2)c1 (stereo not drawn),12.9
8,C=CCOc1ccc(/C=C2\SC(N3CCCCC3)=NC2=O)cc1,14.4
9,O=C([O-])c1cc(-c2ccccc2)cc(-c2ccccc2)[n+]1Cc1ccccc1,7.44
10,COc1ccc(C(=O)NCc2nnc(SCC(=O)Nc3cccc(F)c3)o2)cc1,4.69
11,Cc1ccc(OCC(=O)NCc2cccs2)c([N+](=O)[O-])n1,2.47
12,Cc1cc(C(=O)NCc2ccc(Cl)cc2)n(-c2ccccc2)n1,-8.92
13,COc1ccc(OC)c(C(O)c2nc3ccccc3n2C(C)C)c1 (stereo not drawn),12.9
14,COc1c2ccoc2nc2c(OC)c(O)ccc12,14.6
15,Cc1cccc(NS(=O)(=O)c2cc(C(=O)OCC(=O)Nc3cc(C)on3)ccc2C)c1,5.22
16,CCOC(=O)c1cc(-c2ccccc2)nn1Cc1cc(CC)no1,14.8
17,CC(Oc1ccccc1F)C(=O)NNC(=O)CC(C)c1ccccc1 (stereo not drawn),12.4
18,O=C(O)CC(CC(=O)Nc1ccc(F)c(Cl)c1)c1ccc(Cl)cc1Cl (stereo not drawn),11.4
19,Cc1ccc(CSc2nc3c(c(=O)[nH]2)CCC3)cc1,6.41
20,Cc1ccc(C)c(NC(=S)Nc2ccc(S(=O)(=O)Nc3ncccn3)cc2)c1,8.01
21,O=C(Nc1nnc(-c2ccco2)s1)C1CCN(S(=O)(=O)c2ccc(Cl)cc2)CC1,9.86
22,CCn1c(NC(=O)C(C)C)c2ccccc2nc1=O,2.18
23,O=C1CCCN1c1ccc(S(=O)(=O)NCc2ccco2)cc1,1.5
24,CCOc1ccc(C(=O)Nc2cccc(-c3ccc4nncn4n3)c2)cc1,14.7
